In PubChem BioAssay AID488969 (Vanderbilt High Throughput Screening Facility, 2010) one finds z-score data, which are given here for 109 compounds.

The full ranking holds about 110,000 compounds; the median of “z-score” is about -0.1, and the highest 2% start at about 2. Some of the results follow. Activity calls are given as the source filed them.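 Rule for the calls: active = z-score in the third read window above 3 or below -3; inactive = the rest.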

The assay deals with Metabotropic glutamate receptor 8 (Rattus norvegicus) (UniProt P70579). Description: mGluR8 Gi/Go-coupled signaling modulation – cell-based, rat, thallium flux, HTS, primary screen (AID 488969). As to conditions: HEK293 rat mGluR8, GIRK (G protein-gated inwardly rectifying potassium channel) thallium flux, FluoZin2; at 10 µM; stronger effect = higher value; submaximal glutamate (EC20) added with thallium.
Sequence of UniProt P70579 (P70579 whole entry, looked up): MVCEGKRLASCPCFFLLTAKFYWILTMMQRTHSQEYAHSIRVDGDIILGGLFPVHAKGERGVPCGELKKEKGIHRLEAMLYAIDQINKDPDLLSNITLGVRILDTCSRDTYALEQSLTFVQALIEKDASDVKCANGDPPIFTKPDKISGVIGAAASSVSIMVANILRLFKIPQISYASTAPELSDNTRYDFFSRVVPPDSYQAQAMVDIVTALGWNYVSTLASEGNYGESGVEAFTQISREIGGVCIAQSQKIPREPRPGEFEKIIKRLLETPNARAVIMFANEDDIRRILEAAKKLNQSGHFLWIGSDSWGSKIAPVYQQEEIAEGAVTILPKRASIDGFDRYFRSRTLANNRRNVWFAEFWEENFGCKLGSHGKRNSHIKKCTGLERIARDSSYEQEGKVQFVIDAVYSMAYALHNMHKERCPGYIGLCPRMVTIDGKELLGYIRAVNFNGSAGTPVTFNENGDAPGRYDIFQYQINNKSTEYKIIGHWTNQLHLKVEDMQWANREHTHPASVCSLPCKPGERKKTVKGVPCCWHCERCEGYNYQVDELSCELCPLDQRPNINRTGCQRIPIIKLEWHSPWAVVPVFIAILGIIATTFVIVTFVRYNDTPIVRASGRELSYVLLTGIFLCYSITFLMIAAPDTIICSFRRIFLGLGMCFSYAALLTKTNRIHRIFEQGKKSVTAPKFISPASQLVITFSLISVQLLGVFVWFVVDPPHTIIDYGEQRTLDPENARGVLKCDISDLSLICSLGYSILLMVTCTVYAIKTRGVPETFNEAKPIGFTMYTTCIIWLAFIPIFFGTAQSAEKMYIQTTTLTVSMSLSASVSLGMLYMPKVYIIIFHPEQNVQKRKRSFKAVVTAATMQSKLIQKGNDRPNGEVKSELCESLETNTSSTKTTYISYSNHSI
Compound `Clc1cccc(Cl)c1CNC1CCCC1` registered a z-score of 0.0492.

The compound `COC(=O)Nc1ccc(C)c2nsnc12` registered a z-score of -0.223.

`O=C(NCc1cc(C(F)(F)F)cc(C(F)(F)F)c1)C1CC(c2c(Cl)cccc2Cl)=NO1` (centres undefined) registered a z-score of -0.111.

The compound `O=C(Nc1ccccc1C(=O)N1CCCC1)c1cccc(S(=O)(=O)N2CCCCC2)c1` registered a z-score of -0.309.

`O=S(=O)(Nc1nc2ccccc2nc1Nc1ccc2c(c1)OCO2)c1ccc(F)cc1`: the z-score is -0.192.

Compound `C#CCN(C#N)c1nc(NCC)nc(NC(C)C)n1` showed a z-score of -0.177.

On to `CCN(CC)C(=O)c1cccc(-c2ccc(OC)cc2)c1`, for which the z-score was -0.0256.

For the compound `CCOC(=O)c1cc(NC(=O)N(CC)C2CCCCC2)c(C)nc1C`, the z-score was -0.22.

Compound `COc1ccc(N(C(=O)COc2ccccc2OC)S(=O)(=O)c2ccc(C)cc2)cc1` gave a z-score of -0.375.

As to `Cc1ccc(NC(=O)c2ccc(Cl)c(N3C(=O)C=CC3=O)c2)cc1`, the z-score was -0.0244.

For the compound `Cc1cc(C)c(NC(=O)CN(c2ccccc2)S(=O)(=O)N(C)C)c(C)c1`, the z-score is -0.0557.

Take `Cc1ccc(/C=N\NC(=O)Cn2c(C)nc3ccccc32)o1`: the z-score is -0.152.

For the compound `CCn1c(-c2cc3c(C(F)(F)F)nn(C)c3s2)n[nH]c1=S`, the z-score was active: 7.

In turn, `CC(C)OC(=O)c1c(NC(=O)c2cnn3c2NC(c2ccccc2)CC3C(F)F)sc2c1CCCC2` (centres undefined) came in with a z-score of -0.443.

The compound `CCC(C)/C(C)=N/NC(=O)c1cn(-c2ccccc2)nc1-c1ccccc1` (centres undefined) yielded a z-score of -0.313.

`Fc1ccccc1/C=C1\CCCC2=C1Nc1nnnn1C2c1ccccc1F` (centres undefined) showed a z-score of 0.114.

The compound `O=C(CN1CCN(c2ccccn2)CC1)Nc1ccc(OCc2ccccc2)cc1` yielded a z-score of -0.123.

`CCC(=O)NC(/C=C/c1ccccc1)c1cc([N+](=O)[O-])c2cccnc2c1O` (centres undefined) came in with a z-score of 0.0672.

In turn, `COc1ccc(-n2c(C)cc(SC)c(C(C)=O)c2=S)cc1` came in with a z-score of -0.0894.

`O=[N+]([O-])c1cc(/C=N/O)ccc1Sc1ccccc1` had a z-score of 1.5.

Compound `O=C(COC(=O)/C=C/c1cn(-c2ccccc2)nc1-c1cccnc1)Nc1ccc(Cl)cc1Cl` gave a z-score of 0.113.

`CS(=O)(=O)N(CC(=O)Nc1ccccc1Sc1ccccc1)C1CCCCC1`: the z-score was -0.0112.

In the case of `O=S(=O)(NCc1cn2ccccc2n1)c1cc(F)ccc1F`, the z-score is 0.364.

Turning to `CCc1nnc(NC(=O)CSc2nnc(COc3ccccc3C)o2)s1`, the z-score worked out at 0.0603.

`CC1=C(C(N)=O)C(c2cccc(OCc3ccccc3)c2)n2nnnc2N1` (centres undefined) registered a z-score of -0.387.

As to `O=C(Oc1ccc2ccc(OC(=O)N3CCOCC3)cc2c1)N1CCOCC1`, the z-score is -0.11.

The compound `Cn1cccc1-c1nc2ccc(NC(=O)c3ccc([N+](=O)[O-])cc3)cc2[nH]1` returned a z-score of 0.0495.

`CCOC(=O)C1=C(C)Nc2nc(SC)nn2C1c1ccc(C(=O)OC)cc1` (centres undefined) had a z-score of -0.402.

`N#Cc1nc(N2CCCCC2)nc(N2CCOCC2)n1` yielded a z-score of -0.0259.

`C/C(Cl)=C/Cn1c(SCc2ccc(Cl)cc2)nc2c1c(=O)[nH]c(=O)n2C`: the z-score was -0.0677.

`CCCNC(=O)C(=O)c1cccn1-c1ccsc1C(=O)OC` showed a z-score of -0.122.

The compound `CCN=C1SC(C(=O)NCCc2ccccc2)CC(=O)N1CC` (centres undefined) had a z-score of -0.161.

Compound `CN1CCc2nc(SCC(=O)Nc3cccc(F)c3)c(C#N)c(-c3cccs3)c2C1` had a z-score of -0.0246.

For `COc1ccc(C(=O)c2ccc(OC)c(OC)c2)cc1OC`, the z-score is -0.174.

For `CCOc1ccccc1Nc1nnc(SCC(=O)N2CCCC2)s1`, the z-score turned out to be 0.0764.

For the compound `O=C1CC(c2ccncc2)c2cc3c(cc2N1)OCCO3` (centres undefined), the z-score was active: 7.59.

`CC(=O)Nc1ccc(S(=O)(=O)N(C)c2ccc(O)cc2)cc1`: the z-score came to 0.0757.

`CCC(=O)OCCn1c(=O)c2cc3c(=O)n(CCOC(=O)CC)c(=O)c3cc2c1=O` registered a z-score of -0.0607.

For the compound `CC(C)(C)c1ccc(/C=N/Nc2ccc(C(=O)O)cc2)cc1`, the z-score is -0.659.

In the case of `CCOC(=O)C1CCCN(C2CC(=O)N(c3cccc(C)c3)C2=O)C1` (centres undefined), the z-score was determined as 0.0843.

As for `O=C(Nc1nc(-c2ccc3c(c2)OCCO3)cs1)c1ccc(S(=O)(=O)N2CCCCC2)cc1`, the z-score is 1.

As to `COc1cccc(C(=O)NN/C(C)=C/C(=O)C(F)(F)C(F)(F)C(F)(F)F)c1`, the z-score is -0.145.

In the case of `O=S(=O)([N-]c1nc2ccccc2nc1-[n+]1ccccc1)c1ccccc1`, the z-score was determined as 0.0342.

As to `COc1ccc(CCNC(=O)c2cc(-c3ccccc3)on2)cc1OC`, the z-score stood at 0.914.

In the case of `O=C(NCCC1=CCCCC1)c1coc(=O)c(Br)c1`, the z-score is -0.132.

In turn, `Cc1ccc(C(=O)c2cc([N+](=O)[O-])ccc2N2CCOCC2)cc1C` displayed a z-score of -0.0564.

For the compound `CCCn1nnnc1NC(=O)COc1ccc(Cl)c(C)c1`, the z-score worked out at 0.736.

Compound `O=C(O)C1C2C=CC(O2)C1C(=O)NCc1ccc(Cl)cc1` (centres undefined) had a z-score of 0.78.

Take `Cc1cc(N2C(=O)C(=O)/C(=C(/O)c3ccc(F)cc3)C2c2ccc(F)cc2)no1` (centres undefined): the z-score is -1.

The compound `Cc1ccccc1OC1C(=O)N(Cc2ccc3c(c2)OCO3)C1c1sccc1C` (centres undefined) returned a z-score of -0.226.

`COC(=O)c1ccc(NC(=S)N2CCN(Cc3ccc(Cl)cc3)CC2)cc1` showed a z-score of -0.52.

On to `O=c1c2ccccc2nnn1CSc1ccc2ccccc2n1`, for which the z-score was -0.0528.

`Cc1ccc(/C(N)=N/OC(=O)CCc2ccccc2)cc1` had a z-score of -0.148.

The compound `O=C1CNC(=S)N1c1nc(-c2ccccc2)cs1` had a z-score of 0.219.

For `COc1ccc(-c2cnnc(N/N=C/c3ccc(O)c(OC)c3)n2)cc1`, the z-score was -0.134.

In the case of `Nc1nc(-c2ccc3ccccc3c2)c(C2(O)C(=O)Nc3c(Br)cc(F)cc32)s1` (centres undefined), the z-score was found to be 0.203.

On to `Cc1cc(C=C2C(=O)c3ccccc3C2=O)c(C)n1-c1ccccc1`, for which the z-score was determined as 1.73.

Consider `O=C(CC(c1ccccc1)c1ccccc1O)N1CCCC1` (centres undefined), for which the z-score was 0.0324.

`CCOc1ccc(-c2csc(NC(=O)CSC3=NC(=O)CN3C(C)=O)n2)c2ccccc12`: the z-score was -0.151.

Compound `CN(c1ccccc1C(=O)O)S(C)(=O)=O` yielded a z-score of -0.188.

Compound `CCN(C(=O)CN1CCN(c2ccccc2)CC1)c1c(N)n(Cc2ccccc2)c(=O)[nH]c1=O` yielded a z-score of -0.349.

`COc1ccc(NC(=S)N2CCC(N(C)CCN3CCOCC3)CC2)cc1Cl` returned a z-score of -0.269.

Compound `CCOC(=O)c1c(NC(=O)OC)sc2c1CCC2` displayed a z-score of 0.00121.

Turning to `CCOC(=O)c1sc2nc(C(C)C)c3c(c2c1N)CC(C)(C)OC3`, the z-score is -0.0374.

As to `O=C(CSc1n[nH]c(-c2ccccc2)n1)NC(=O)NCc1ccco1`, the z-score is -0.0403.

Compound `CCOC(=O)c1ccc(NC(=O)CSc2nnc(-c3cccs3)n2C)cc1` registered a z-score of -0.387.

The compound `CCCn1c(SCC#N)nc2c(c1=O)C1(CCCC1)Cc1ccccc1-2` had a z-score of -0.934.

`Clc1ccc(Nc2ncnc3ccc(Br)cc23)cc1` registered a z-score of -0.324.

Compound `COC(=O)c1cc(NC(=O)CSc2nc(C)cc(=O)[nH]2)cc(C(=O)OC)c1` had a z-score of -1.48.

The compound `N#CC(c1ccc(O)cc1)N1CCOCC1` (centres undefined) returned a z-score of 0.128.

For `CCOC(=O)C1=C(O)/C(=C\c2cccc(OC)c2)N=C1C`, the z-score was -0.194.

`CC(=O)Nc1cccc(NC(=O)CSc2nc(C)c(C)c(C)c2C#N)c1` displayed a z-score of -0.0738.

For the compound `Cc1nc2ccccc2c2nc(N)nn12`, the z-score amounted to 0.346.

`COc1cc(-c2nnc3n(CCc4ccccc4)c(=O)c4ccccc4n23)cc(OC)c1OC` returned a z-score of -0.27.

`CCOc1cc(/C=C2\C(=O)N(c3ccc(C(N)=O)cc3)N=C2C)ccc1OC(=O)c1cccs1`: the z-score amounted to 0.0117.

`Cc1ccc(NC(=O)c2cc3c(=O)oc4ccccc4c3s2)nc1` came in with a z-score of 0.238.

In turn, `O=C(Cn1nnc2ccccc2c1=O)NCCc1ccc(Cl)cc1Cl` had a z-score of 0.684.

`CCOC(=O)NC(NCc1ccccc1)(C(F)(F)F)C(F)(F)F` had a z-score of -0.243.

Consider `O=C(CSc1nc2cc(Cl)ccc2s1)N1CCCc2ccccc21`, for which the z-score is -0.158.

`Fc1cccc(F)c1CSc1nc2ccccc2[nH]1` returned a z-score of -0.786.

Regarding `CN1c2cccc3cccc(c23)N(C)C1c1cccs1`, the z-score is -0.099.

For `O=C(Oc1ccc2c(=O)c(Oc3ccc4ccccc4c3)coc2c1)c1cccnc1`, the z-score amounted to 0.217.

With `CCS(=O)(=O)N1CCC(NC(C)=O)(c2ccccc2)CC1`, the z-score is 0.175.

In the case of `COc1ccc(CNC(=O)Cc2nn(C)c(=O)c3ccccc23)cc1`, the z-score is -0.155.

Consider `Cc1cc(C(=O)OCC(=O)N2CC(=O)Nc3ccccc32)c(C)n1-c1ccccc1`, for which the z-score was -1.4.

As for `CCNC(=O)C1CCCN1S(=O)(=O)c1ccc(OC)cc1` (centres undefined), the z-score is 0.787.

`COC(=O)c1ccc(-n2nnnc2SCC(=O)Nc2ccccc2C(=O)OC)cc1` returned a z-score of 0.0292.

The compound `CCN(C(=O)Cn1c(=O)oc2ccccc21)C1CCS(=O)(=O)C1` (centres undefined) displayed a z-score of -0.308.

For `CN(C#N)c1nc(N2CCOCC2)nc(N2CCOCC2)n1`, the z-score is -0.397.

`Cc1ccc(S(=O)(=O)c2nc(-c3ccccc3)oc2NCCN2CCOCC2)cc1` came in with a z-score of 0.162.

In the case of `CCOC(=O)c1c(-c2ccc(C)o2)csc1NC(=S)NC(=O)c1ccccc1Br`, the z-score was 0.406.

`Nc1nonc1C(=O)N/N=C/c1cccc([N+](=O)[O-])c1` returned a z-score of -0.0121.

Regarding `Cc1ccc(C2CC(=O)c3cnc(N4CCN(c5ccccc5)CC4)nc3C2)cc1` (centres undefined), the z-score amounted to 0.776.

`O=C(COC(=O)c1cnccn1)Nc1ccc2c(c1)OCO2` registered a z-score of 0.668.

Consider `CCc1ccc(N2C(=O)CC(N3CCC(C(=O)OC)CC3)C2=O)cc1` (centres undefined), for which the z-score was -0.0761.

Regarding `c1ccc(-c2nc(NCc3ccco3)c3ccccc3n2)nc1`, the z-score is -0.859.

Take `Cc1ccc(-n2c(C)cc(/C=C(\C#N)C(=O)NCC3CCCO3)c2C)cc1` (centres undefined): the z-score is -0.45.

Consider `Cc1ccc(OC(=S)Nc2ccccc2)c(C)c1`, for which the z-score was active: 3.2.

With `N=C1C(c2nc3ccccc3[nH]2)=C(O)CN1c1ccccc1`, the z-score is -0.307.

`CCOc1cc(/C=N\NC(=O)c2ccc(NC(=O)C(C)(C)C)cc2)ccc1OC(=O)c1ccc(C)cc1` came in with a z-score of -0.218.

Turning to `CCOc1ccc2nc(NCCCNS(=O)(=O)c3ccc(C)cc3)c(C#N)cc2c1`, the z-score is -0.128.

The compound `CCCc1cc(C(N)=S)ccn1` returned a z-score of 2.24.

Regarding `COc1ccc(OC)c(N(CC(N)=O)S(=O)(=O)c2ccc(OC)c(OC)c2)c1`, the z-score was -0.0368.

In turn, `NC(=O)CSc1nc(O)cc(=O)n1-c1ccccc1` yielded a z-score of 0.418.

In the case of `Cc1ccc(C)c(-n2c(-c3ccc4c(c3)OCO4)n[nH]c2=S)c1`, the z-score is -0.146.

For `Cc1cccc(-c2nnc(-c3ccc(N)cc3)o2)c1`, the z-score was found to be 0.111.

On to `O=[N+]([O-])c1ccc(N2CCN(S(=O)(=O)Cc3ccccc3)CC2)cc1N1CCOCC1`, for which the z-score is -0.395.

`CCCCc1nc2sc3c(c2c(=O)[nH]1)CCC3` yielded a z-score of 0.62.

As for `N=C1C(=O)OCC1c1ccccc1NC(=O)c1ccc(F)cc1` (centres undefined), the z-score was -0.0442.
